Records with an inconclusive call do not appear. Certain results were filed several times, with different values. Only these are listed. There may be further records. Results that share an entry are repeats (runs, samples, wells, individuals or studies). Marks such as (2×) say how often a value occurs here.

Data on 30 compounds can be found in PubChem BioAssay AID298 (DTP/NCI, 2004).

The test system of the assay is MX-1 breast xenograft, intrarenal, nude mice, tumor weight. Put plainly: NCI In Vivo Anticancer Drug Screen. Data for tumor model Human Mammary Carcinoma MX-1 Xenograft (intrarenal inoculation) in NU/NU BALB/C (nude) mice. The settings on record: endpoint: mean tumor weight change, higher = larger tumour. How it is done: The antitumor activity of compounds was measured in mice bearing transplantable tumors. Survival or tumor size were measured and the results are expressed as the measurement made in the treated group (T) divided by the measurement made in the vehicle treated control group (C). The tumor model used in this assay is Human Mammary Carcinoma MX-1 Xenograft (intrarenal inoculation) in NU/NU BALB/C (nude) mice
For orientation: A xenograft is tissue or cells of one species grown in another, often human tumour cells in immunodeficient mice.

The mark [1] stands for this setting: dose: 25.0 mg/kg/injection, schedule: Q04DX003 (ip), vehicle: distilled water + Tween-80.
The mark [2] stands for this setting: dose: 5.0 mg/kg/injection, schedule: Q04DX003 (sc), vehicle: saline.

On to `COc1cc2c(oc(=O)c3cc(C)cc(OC)c32)c2c(C3OC(C)C(O)C(C)(O)C3O)ccc(O)c12` (stereo not drawn), for which the T/C (dose: 25.0 mg/kg/injection, schedule: Q04DX003 (ip), vehicle: DMSO) was 79 % of control and 105 % of control.
`CCCCN1C(=O)N(c2ccc(OCC)cc2)C2N(CCCC)C1C(C)(C)C2(C)C` (stereo not drawn): the T/C (dose: 120.0 mg/kg/injection, schedule: Q04DX003 (ip), vehicle: saline with Tween-80) was 58 % of control and 86 % of control.
Take `CO[C@H](/C(C)=C/C=C/C(C)=C/c1coc(C)n1)[C@H](C)[C@H]1C[C@@H](O)[C@@]2(C)O[C@H]2/C=C/[C@@H](C)[C@@H]2C[C@@H](CC(=O)O2)C[C@H]2O[C@@H]2C(=O)O1`: for the setting “dose: 0.13 mg/kg/injection, schedule: Q04DX003 (sc), vehicle: Klucel (hydroxypropylcellulose) (HPC)”, the T/C was 73 % of control and 99 % of control.
For `COc1cc(NCc2ccc3nc(N)nc(N)c3c2C)cc(OC)c1OC`, for the setting “dose: 60.0 mg/kg/injection, schedule: Q04DX003 (ip), vehicle: Klucel (hydroxypropylcellulose) (HPC)”, the T/C is 75 % of control and 103 % of control.
For `CO[C@@]12[C@@H]3N[C@@H]3CN1C1=C(C(=O)C(NCC3CCCO3)=C(C)C1=O)[C@@H]2COC(N)=O` (stereo partly drawn), the T/C under setting [1] is -95 % of control and -10 % of control.
`CO[C@@]12[C@@H]3N[C@@H]3CN1C1=C(C(=O)C(N3CCCC3)=C(C)C1=O)[C@@H]2COC(N)=O`: the T/C was -51 % of control and -21 % of control (dose: 3.0 mg/kg/injection, schedule: Q04DX003 (ip), vehicle: saline with Tween-80); -90 % of control and 8 % of control (dose: 6.0 mg/kg/injection, schedule: Q04DX003 (ip), vehicle: saline with Tween-80).
Consider `Nc1ncn(C2OC(CO)C(O)C2O)c(=O)n1` (stereo not drawn), for which the T/C under setting [2] is 13 % of control and 39 % of control.
On to `O=P1(N(CCCl)CCCl)NCCCO1` (stereo not drawn), for which the T/C (dose: 100.0 mg/kg/injection, schedule: Q04DX003 (ip), vehicle: saline) was -100 % of control and -69 % of control.
As for `COc1cc2c(c(OC)c1OC)-c1ccc(OC)c(=O)cc1[C@@H](NC(C)=O)CC2`, under “dose: 2.0 mg/kg/injection, schedule: Q04DX003 (ip), vehicle: saline”, the T/C was -27 % of control and 6 % of control (2×).
For the compound `CC(O)CCC(=O)c1ccoc1` (stereo not drawn), the T/C by setting is: (dose: 15.0 mg/kg/injection, schedule: Q01DX010 (ip), vehicle: saline) 119 % of control and 157 % of control; (dose: 30.0 mg/kg/injection, schedule: Q01DX010 (ip), vehicle: saline) 92 % of control and 158 % of control.
For `C/C=C(\C)c1cc(=O)c2c(C)cc3c(c2o1)C(=O)c1c(O)c(C2CC(C)(N(C)C)C(OC(C)=O)C(C)O2)cc(C2CC(N(C)C)C(O)C(C)O2)c1C3=O` (stereo not drawn), the T/C under setting [2] is 57 % of control, 83 % of control, 93 % of control; the T/C (dose: 10.0 mg/kg/injection, schedule: Q04DX003 (sc), vehicle: saline) is 24 % of control, 72 % of control, 105 % of control; the T/C (dose: 20.0 mg/kg/injection, schedule: Q04DX003 (sc), vehicle: saline) is reported as 13 % of control, 63 % of control, 73 % of control.
With `ClCC[N+]12CC[N+](CCCl)(CC1)C2`, for the setting “dose: 50.0 mg/kg/injection, schedule: Q01DX010 (sc), vehicle: saline with Tween-80”, the T/C was 30 % of control and 73 % of control.
Consider `CNCCN=c1ccc2c3c1c(O)c1c(O)ccc(=O)c1c3[nH]n2CCNCCO`, for which the T/C (dose: 6.25 mg/kg/injection, schedule: Q04DX003 (ip), vehicle: water) is given as -56 % of control, 1 % of control, 3 % of control.
Regarding `NS(=O)(=O)OCCCCCCCOS(N)(=O)=O`, the T/C is -42 % of control and 13 % of control (dose: 37.5 mg/kg/injection, schedule: Q04DX003 (ip), vehicle: saline with Tween-80); -81 % of control and 3 % of control (dose: 75.0 mg/kg/injection, schedule: Q04DX003 (ip), vehicle: saline with Tween-80).
For `COC(=O)c1ccc(N=NN(C)COC(C)=O)cc1`, the T/C reads like this: (dose: 144.0 mg/kg/injection, schedule: Q04DX003 (ip), vehicle: Klucel (hydroxypropylcellulose) (HPC)) 62 % of control and 103 % of control; (dose: 240.0 mg/kg/injection, schedule: Q04DX003 (ip), vehicle: Klucel (hydroxypropylcellulose) (HPC)) -100 % of control and 25 % of control.
With `COc1nc(C(Cl)(Cl)Cl)c(Cl)c(OC)c1Cl`, the T/C (dose: 75.0 mg/kg/injection, schedule: Q04DX003 (ip), vehicle: Klucel (hydroxypropylcellulose) (HPC)) was 17 % of control and 57 % of control.
In the case of `C#CCNC1=C(C)C(=O)C2=C(C1=O)[C@H](COC(N)=O)[C@]1(OC)[C@@H]3N[C@@H]3CN21`, the T/C is -100 % of control, 48 % of control, 95 % of control (dose: 7.5 mg/kg/injection, schedule: Q04DX003 (ip), vehicle: distilled water + Tween-80); 40 % of control and 75 % of control (dose: 15.0 mg/kg/injection, schedule: Q04DX003 (ip), vehicle: distilled water + Tween-80).
As to `COC1C(N)C(OC2C(Oc3cccc4c(O)c5c(=O)oc6ccc(C)c7c(=O)oc(c34)c5c67)OC(C)C(O)C2(C)O)OC(C)C1O` (stereo not drawn), the T/C (dose: 5.0 mg/kg/injection, schedule: Q04DX003 (ip), vehicle: lactic acid) is 37 % of control and 76 % of control.
With `NC(Cc1ccc(N(CCCl)Cc2ccccc2)cc1)C(=O)O` (stereo not drawn), the T/C (dose: 50.0 mg/kg/injection, schedule: Q04DX003 (ip), vehicle: saline with Tween-80) was 17 % of control and 56 % of control.
`N#Cc1c(-c2ccc(F)cc2)c(-c2ccc(F)cc2)nn(CCO)c1=O`: the T/C under setting [1] was 67 % of control and 102 % of control; the T/C (dose: 100.0 mg/kg/injection, schedule: Q04DX003 (ip), vehicle: distilled water + Tween-80) was 49 % of control, 87 % of control, 109 % of control; the T/C (dose: 200.0 mg/kg/injection, schedule: Q04DX003 (ip), vehicle: distilled water + Tween-80) is on record as 44 % of control, 68 % of control, 74 % of control.
As to `O=C(Nc1ccccc1CCl)Nc1ccccc1CCl`, the T/C (dose: 150.0 mg/kg/injection, schedule: Q04DX003 (ip), vehicle: saline with Tween-80) is given as 51 % of control, 54 % of control, 92 % of control; the T/C (dose: 300.0 mg/kg/injection, schedule: Q04DX003 (ip), vehicle: saline with Tween-80) is recorded as 29 % of control, 46 % of control, 71 % of control; the T/C (dose: 600.0 mg/kg/injection, schedule: Q04DX003 (ip), vehicle: saline with Tween-80) is on record as 16 % of control, 45 % of control, 57 % of control.
As for `COc1c2c(c(O)c3c4c(c(C)cc13)C1OC3(C(OC)OC5CC(C)(O)C(OC6CC(C)(O)C(O)C(C)O6)C(C)O5)OC1C(OC)(O4)C31CO1)C(=O)C(O)CC2OC1CC(C)(O)C(OC(C)=O)C(C)O1` (stereo not drawn), the T/C is 33 % of control, 42 % of control, 94 % of control (dose: 0.12 mg/kg/injection, schedule: Q04DX003 (ip), vehicle: saline); 15 % of control (2×) and 64 % of control (dose: 0.25 mg/kg/injection, schedule: Q04DX003 (ip), vehicle: saline).
With `O=c1[nH]c(=O)n(C2CC(O)C(CO)O2)cc1F` (stereo not drawn), under “dose: 50.0 mg/kg/injection, schedule: Q01DX010 (sc), vehicle: water”, the T/C was 7 % of control and 44 % of control.
With `CCN(CC)CCn1[nH]c2c3ccc(=O)cc3sc3c(NCCN)ccc1c32`, the T/C (dose: 12.5 mg/kg/injection, schedule: Q04DX003 (ip), vehicle: water) is reported as 10 % of control, 17 % of control, 51 % of control.
For `CC[C@@H](C)[C@H]([C@H](CC(=O)N1CCC[C@@H]1[C@@H](OC)[C@H](C)C(=O)N[C@H](Cc1ccccc1)c1nccs1)OC)N(C)C(=O)[C@H](NC(=O)[C@@H](C(C)C)N(C)C)C(C)C`, the T/C (dose: 6.25 micrograms/kg/injection, schedule: Q04DX003 (ip), vehicle: saline + alcohol) is 69 % of control and 178 % of control.
`CN(C)C1C(=O)C(C(=O)NP(=O)(NCCCO)N(CCCl)CCCl)=C(O)C2(O)C(=O)C3=C(O)c4c(O)cccc4C(C)(O)C3CC12` (stereo not drawn): under “dose: 150.0 mg/kg/injection, schedule: Q04DX003 (sc), vehicle: saline with Tween-80”, the T/C is -100 % of control and -34 % of control.
For the compound `O=S1(=O)CS(=O)(=O)OCCO1`, the T/C (dose: 75.0 mg/kg/injection, schedule: Q04DX003 (sc), vehicle: Klucel (hydroxypropylcellulose) (HPC)) was 12 % of control and 59 % of control.
Turning to `CNC(=O)OCc1nc(SC)n(C)c1COC(=O)NC`, the T/C reads like this: (dose: 50.0 mg/kg/injection, schedule: Q04DX003 (ip), vehicle: suspension in saline) -91 % of control and -22 % of control; (dose: 100.0 mg/kg/injection, schedule: Q04DX003 (ip), vehicle: suspension in saline) -73 % of control and -28 % of control.
Take `Cc1ccc(C(=O)NC2C(=O)NC(C(C)C)C(=O)N3CCCC3C(=O)N(C)CC(=O)N(C)C(C(C)C)C(=O)OC2C)c2c1Oc1c(c(C(=O)NC3C(=O)NC(C(C)C)C(=O)N4CCCC4C(=O)N(C)CC(=O)N(C)C(C(C)C)C(=O)OC3C)c3nc(-c4ccccc4)c(=O)oc3c1C)N2` (stereo not drawn): where the note is “dose: 0.5 mg/kg/injection, schedule: Q04DX003 (ip), vehicle: water”, the T/C was 26 % of control and 60 % of control.
Consider `O=C(NC(Cc1ccc(I)cc1)C(=O)O)c1ccc(Br)cc1` (stereo not drawn), for which the T/C (dose: 75.0 mg/kg/injection, schedule: Q04DX003 (ip), vehicle: sodium bicarbonate) is 63 % of control and 102 % of control.
